Experimental data: article PMC6919601, “Identification of Plasmodium dipeptidyl aminopeptidase allosteric inhibitors by high throughput screening” (PLoS ONE, 2019)
Out of some 110,000 compounds screened, about 230 (0.21%) showed an effect of 50% or more. The list shows a part of the results.

Target: DPAP1 (Plasmodium falciparum, UniProt Q8IIJ9)
Assay: primary screen, percent inhibition; read by cleavage of a fluorogenic dipeptide substrate; higher = more effect of the substance
Parameters: species or system P. falciparum D10 trophozoite lysates; single well
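Further: 30 min substrate incubation versus DMSO and 10 µM JCP410 controls.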

Chain of DPAP1 (Q8IIJ9 whole entry, looked up): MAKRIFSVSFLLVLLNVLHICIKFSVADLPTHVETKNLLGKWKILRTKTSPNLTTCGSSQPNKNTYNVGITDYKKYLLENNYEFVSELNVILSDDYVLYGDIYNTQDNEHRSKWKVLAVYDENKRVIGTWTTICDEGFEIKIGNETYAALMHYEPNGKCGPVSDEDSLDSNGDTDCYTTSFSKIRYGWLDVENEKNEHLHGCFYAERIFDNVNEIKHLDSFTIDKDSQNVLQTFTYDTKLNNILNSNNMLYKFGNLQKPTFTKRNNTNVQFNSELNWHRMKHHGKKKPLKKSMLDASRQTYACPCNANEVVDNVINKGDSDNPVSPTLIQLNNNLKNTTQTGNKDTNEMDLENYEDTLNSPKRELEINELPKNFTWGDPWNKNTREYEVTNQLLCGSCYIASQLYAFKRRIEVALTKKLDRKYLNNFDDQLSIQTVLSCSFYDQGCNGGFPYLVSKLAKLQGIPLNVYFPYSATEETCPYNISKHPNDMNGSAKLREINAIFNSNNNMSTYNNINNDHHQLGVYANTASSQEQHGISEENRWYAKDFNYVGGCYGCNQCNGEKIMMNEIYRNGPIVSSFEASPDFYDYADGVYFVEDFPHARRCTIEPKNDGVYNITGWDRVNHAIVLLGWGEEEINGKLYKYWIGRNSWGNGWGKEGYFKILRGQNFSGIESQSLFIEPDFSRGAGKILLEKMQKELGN

Row | Compound | % Inhibition @ 10 uM
1 | CCCn1c(=O)c(=O)[nH]c2c(=O)oc3ccccc3c21 | 1.75%
2 | CCc1ccc2occ(CC(=O)N(Cc3ccc(OC)cc3)C3CCS(=O)(=O)C3)c2c1 (stereo not drawn) | 11.3%
3 | CC(C)NC(=O)C(Cc1ccccc1)N1Cc2ccccc2C1=O (stereo not drawn) | -2.41%
4 | CSc1nc(C)c(C)c(C)c1C#N | 2.4%
5 | COc1ccc(C(=O)Nc2nnc(CCSc3cc(Cl)ccc3Cl)s2)cc1OC | 9.39%
6 | CCc1ccc(-c2nc(CSCC(=O)NC3CCC(C)CC3)c(C)o2)cc1 (stereo not drawn) | -6.64%
7 | COc1ccc(C(=O)NCC(=O)c2ccccc2)cc1 | -3.65%
8 | CCn1cc(CNC(=O)C23CC4CC(CC(C4)C2)C3)c(C)n1 | -3.37%
9 | CC(CC(=O)N[C@@H](C)c1ccccc1)C(=O)N[C@@H](C)c1ccccc1 (stereo partly drawn) | 0.132%
10 | CC(C)(C)NC(=O)/C=C/c1ccc(Cl)cc1 | 3%
11 | Cc1ccc(N2C(=O)c3ccc(C(=O)Nc4cc(C(=O)O)cc(C(=O)O)c4)cc3C2=O)cc1C | 0.774%
12 | CCC(C)(C)c1ccc(OCC(=O)Nc2ccc(O)cc2C(=O)O)cc1 | 12.1%
13 | CCOC(=O)N1CCN(C(=O)c2cc(C)nc3c2c(C)nn3-c2ccc(C)cc2)CC1 | 0.44%
14 | CCOc1ccc(-c2nonc2NC(=O)COc2ccc(Cl)cc2C)cc1OCC | -6.98%
15 | COc1ccc(C(=O)Nc2ccc(C3(C#N)CCCC3)cc2)cc1OC | -1.28%
16 | O=C(Nc1ccc(Br)cc1)c1cccc(S(=O)(=O)N2CCCCC2)c1 | -7.1%
17 | COc1ccc(S(=O)(=O)Cc2ccc(C(=O)N3CC(C)CC(C)C3)o2)cc1 (stereo not drawn) | -4.96%
18 | COC(=O)c1cc2ccc(Br)cc2[nH]1 | -7.52%
19 | CC(=O)c1cc(C#N)c(SCCCCSc2nc(C)c(C(C)=O)cc2C#N)nc1C | -1.6%
20 | CC1=CC2=NC(=O)/C(=C\c3cccn3CCCOc3ccccc3Cl)C(=N)N2O1 | -1.43%
21 | Cc1cccn2cc(CNC(=O)c3ccc(C(F)(F)F)cc3)nc12 | -1.72%
22 | CN(C)C(=O)Nc1c(O)oc2ccccc2c1=O | -4.76%
23 | CCS(=O)(=O)N1CCC(C(=O)NCCCN2CCC(Cc3ccccc3)CC2)CC1 | 3.79%
24 | CC1CCN(S(=O)(=O)N2CCCC(C(=O)N3CCC(C(N)=O)CC3)C2)CC1 (stereo not drawn) | 0.49%
25 | CCC(C)NC(=O)CNS(=O)(=O)c1ccc(C)cc1 (stereo not drawn) | 5.66%

Row | Compound | % Inhibition @ 10 uM
26 | N#Cc1nc(COc2ccccc2Cl)oc1NCCN1CCOCC1 | -1.98%
27 | Cc1sc(NC(=O)C2C3CCC(O3)C2C(=O)O)c(C(N)=O)c1-c1ccc(C(C)C)cc1 (stereo not drawn) | 1.39%
28 | Cc1ccc(CN(C(=O)c2oc3c(C)c(C)ccc3c2C)C2CCS(=O)(=O)C2)o1 (stereo not drawn) | 0.569%
29 | COc1ccc(-c2csc(N)n2)c(OC)c1 | 6.81%
30 | CC(Oc1ccc(Cl)cc1Cl)C(=O)NCC1CCCO1 (stereo not drawn) | -6.25%
31 | Cc1ccc(C(C2=C(O)CCCC2=O)C2C(=O)CCCC2=O)o1 (stereo not drawn) | -3.98%
32 | Cc1ccc(S(=O)(=O)Cc2nc(-c3ccc(C(=O)N4CCOCC4)cc3)oc2C)cc1 | -5.73%
33 | Cc1nn(CC(=O)NCC(C)c2ccccc2)c(=O)c2cccn12 (stereo not drawn) | -4.93%
34 | O=C(O)c1ccc2c(c1)C(=O)N(c1cccc(O)c1)C2=O | -3.55%
35 | O=C(c1cccs1)N(Cc1ccccc1)Cc1ccccc1 | -0.687%
36 | CC(C)CC(C(=O)NCC#N)c1cccc(-c2ccc(S(=O)(=O)N3CCN(C=O)CC3)cc2)c1 (stereo not drawn) | -1.41%
37 | CC1CC(C)CN(C(=O)c2ccc(CNS(=O)(=O)c3cccc(C(F)(F)F)c3)cc2)C1 (stereo not drawn) | 3.72%
38 | COc1ccc(C2=NN(c3ccccc3)C(c3cccs3)C2)cc1 (stereo not drawn) | 0.247%
39 | Cc1ccccc1-c1nc(Cn2c(=O)cc(C)c3c(C)nn(-c4cccc(F)c4)c32)c(C)o1 | -1.87%
40 | CC(NC(=O)Cn1cccc1)c1ccccc1 (stereo not drawn) | -0.692%
41 | CC1(C)CC(Nc2nc(NC3CC(C)(C)NC(C)(C)C3)nc(N3CCOCC3)n2)CC(C)(C)N1 | -8.11%
42 | CCNC(=O)Nc1nc2ccccc2s1 | 2.92%
43 | O=C(Cn1nc(-c2ccc(Cl)cc2)ccc1=O)NCCCN1CCC(Cc2ccccc2)CC1 | -0.0542%
44 | COc1ccc(-c2nnc3sc(NC(=O)c4ccccc4C)nn23)cc1OC | 0.00665%
45 | Cc1nnc2c3c4c(sc3ncn12)CC(C)CC4 (stereo not drawn) | 2.38%
46 | Cc1cc2c3c(c1)OC(C)(C)CC3OC(O)C2 (stereo not drawn) | 2.76%
47 | O=C(Nc1ccc(O)cc1)c1cccc(F)c1 | -6.02%
48 | Cc1nn(CCCC(=O)N2CC(C)CC(C)C2)c(=O)c2cc3sccc3n12 (stereo not drawn) | -1.58%
49 | CCc1ccc(-c2csc(Nc3cccc(C(F)(F)F)c3)n2)cc1 | -3.97%
50 | O=C(NC1(C(F)(F)F)NC(=O)N(CCc2ccccc2)C1=O)C1CC1 (stereo not drawn) | -0.992%

Row | Compound | % Inhibition @ 10 uM
51 | CCOc1ccc(CCNC(=O)c2csc3c2CCCC3)cc1 | -3.21%
52 | CCN1C(=O)C(CC(=O)O)S/C1=N/c1cccc(Cl)c1Cl (stereo not drawn) | -2.83%
53 | CC1=C(C(=O)Nc2ccc(C)cn2)C(c2cccc(Oc3ccccc3)c2)C2=C(O)CCCC2=N1 (stereo not drawn) | 9.13%
54 | COc1ccc(CNC(=O)CN(c2ccc(C)c(C)c2)S(C)(=O)=O)cc1 | 5.12%
55 | CC(C)(C)C(=O)NCc1nc2ccccc2n1Cc1c(F)cccc1Cl | 6.01%
56 | CN1C(=O)CCC(CCC(=O)O)(c2ccccc2O)C1=O (stereo not drawn) | 2.89%
57 | CCCNC(=O)CN(c1ccc(OCC)cc1)S(C)(=O)=O | -4.62%
58 | COc1ccc(C(=O)c2sc3nc4c(c(C(F)(F)F)c3c2N)CN(C(C)=O)CC4)cc1 | 10.6%
59 | CCn1cc(S(=O)(=O)NCc2ccc(OC)c(OC)c2)cn1 | -4.42%
60 | c1ccc(-c2cc(N3CCCC3)n3cnnc3n2)cc1 | -2.57%
61 | CNS(=O)(=O)c1ccc(/N=C/c2c(C)nn(-c3ccc(C)cc3C)c2O)cc1 | 0.674%
62 | Cn1nc(C(=O)NC2CCCCC2)c2c1-c1ccsc1CC2 | -4.27%
63 | CCC(=O)N1c2ccccc2N=C2CC(C)(C)CC(O)=C2C1c1cccs1 (stereo not drawn) | -2.54%
64 | COCCCN1C(=O)S/C(=C/c2cc(Cl)c(O)c(Cl)c2)C1=O | -1.04%
65 | COc1ccccc1CNC(=O)C1=C(C)C(=O)OC12CCC(C)CC2 (stereo not drawn) | -1.89%
66 | CC(=O)OC1(C#CCN2CCN(C)CC2)CCCCC1 | -1.15%
67 | COc1ccc(OCC(=O)Nc2ccccc2-c2ccccc2)cc1 | -7.75%
68 | CC1=CC(C)(C)NC(=S)N1c1ccc2ccccc2c1 | -0.687%
69 | CCOC(=O)c1c(N)n(CCc2ccccc2)c2nc3ccccc3nc12 | -12.5%
70 | Cc1c(Br)c(C(F)(F)F)nn1CC(=O)NCCN1CCOCC1 | -2.6%
71 | O=C(c1nnc(Cc2ccc(F)cc2Cl)o1)N1CCN(C2CCCCC2)CC1 | 8.63%
72 | CC1C(c2ccc(F)cc2)=[N+]([O-])C(C)(C(=O)c2ccccc2)N1O (stereo not drawn) | 1.63%
73 | COC(=O)C1=C(C)OC(=O)C1(NC(=O)c1ccccc1)C(F)(F)F (stereo not drawn) | -4.49%
74 | COc1ccc2c(c1)SCC/C2=C\CN1C(=O)CCC1=O | 0.408%
75 | CCc1n[nH]c(SCc2ccc(OC)cc2)n1 | -3.06%

Row | Compound | % Inhibition @ 10 uM
76 | Cc1sc2c(c1C)CSC(C(=O)NCc1ccccc1Cl)=C2 | -7.05%
77 | CCOc1ccc(-c2csc(/C(C#N)=C/c3ccc(N(C)C)cc3)n2)cc1 | 0.98%
78 | O=C1CSC2(CN3CCC2CC3)N1 (stereo not drawn) | -4.01%
79 | CCCOC(=O)c1c(NC(=O)c2ccc3c(c2)OCO3)sc2c1CCC(C)C2 (stereo not drawn) | 3.94%
80 | CC1=C(C(=O)OCC2CCCCC2)C(c2cccc(Cl)c2)NC(=O)N1 (stereo not drawn) | 8.87%
81 | CC(C)(C)c1ccc(S(=O)(=O)NCC(=O)Nc2sc3c(c2C(N)=O)CCCC3)cc1 | 2.63%
82 | COCCCN1C(=O)c2[nH]nc(-c3ccccc3O)c2C1c1cc(Br)c(O)c(OC)c1 (stereo not drawn) | -5.18%
83 | COc1ccc(-c2noc(CC(=O)NCCN(C)C)n2)cc1 | 0.304%
84 | O=C(Nc1ccc(F)cc1F)c1cnccn1 | 1.26%
85 | O=P(Nc1cccnc1)(Oc1ccccc1Cl)Oc1ccccc1Cl | 5.7%
86 | O=C(COc1ccc(-c2cnc3ccccc3n2)cc1)c1ccc(F)cc1 | -1.43%
87 | COc1ccc(C2C(C#N)=C(N)Oc3[nH]nc(-c4ccccn4)c32)c(OC)c1OC (stereo not drawn) | -2.78%
88 | Cc1cc(C)nc(NC(=O)CCCOc2ccc(Cl)cc2C)n1 | -1.33%
89 | Cc1ccc(-c2cc(C(F)(F)F)n3nc(C(=O)NCc4c(C)nn(C)c4C)cc3n2)cc1 | -5.44%
90 | CC(Oc1cccc(Cl)c1)C(=O)Nc1ncccc1Cl (stereo not drawn) | 0.528%
91 | COc1cc(CN2CCNCC2)cc2c1OCO2 | -4.89%
92 | CCCCOC(=O)c1ccc(NS(=O)(=O)c2ccc(Cl)cc2)cc1 | 4.81%
93 | COC(=O)c1sc(-c2ccccc2)cc1NC(=O)c1ccc(OC)c(OC)c1 | 1.22%
94 | COc1cc(-c2nnc3sc(-c4ccccc4C)nn23)cc(OC)c1OC | 1.25%
95 | Cc1ccc(S(=O)(=O)CCc2nc3ccccc3o2)cc1C | -13.6%
96 | CC(=O)c1cccc(NC(=O)c2sc3ccccc3c2Cl)c1 | -2.56%
97 | CCN1CCN(C(=O)Cn2ncc3c4ccccc4n(C)c3c2=O)CC1 | -5.49%
98 | CCc1cc2c(=O)c(-c3nc4ccccc4[nH]3)coc2c(CN2CCCC(C)C2)c1O (stereo not drawn) | -1.11%
99 | COc1ccc(CNC2CC(C)(C)NC(C)(C)C2)cc1 | -1.6%
